In the supplement of paper PMC3334620:
Over roughly 33,000 sequences, “E-score (-0.5 to 0.5)” has its median near -0.043; the highest 2% begin near 0.37. The list shows a part of the results.

Biological target: T1, Upc2 (UniProt Q12151)
T1 sequence: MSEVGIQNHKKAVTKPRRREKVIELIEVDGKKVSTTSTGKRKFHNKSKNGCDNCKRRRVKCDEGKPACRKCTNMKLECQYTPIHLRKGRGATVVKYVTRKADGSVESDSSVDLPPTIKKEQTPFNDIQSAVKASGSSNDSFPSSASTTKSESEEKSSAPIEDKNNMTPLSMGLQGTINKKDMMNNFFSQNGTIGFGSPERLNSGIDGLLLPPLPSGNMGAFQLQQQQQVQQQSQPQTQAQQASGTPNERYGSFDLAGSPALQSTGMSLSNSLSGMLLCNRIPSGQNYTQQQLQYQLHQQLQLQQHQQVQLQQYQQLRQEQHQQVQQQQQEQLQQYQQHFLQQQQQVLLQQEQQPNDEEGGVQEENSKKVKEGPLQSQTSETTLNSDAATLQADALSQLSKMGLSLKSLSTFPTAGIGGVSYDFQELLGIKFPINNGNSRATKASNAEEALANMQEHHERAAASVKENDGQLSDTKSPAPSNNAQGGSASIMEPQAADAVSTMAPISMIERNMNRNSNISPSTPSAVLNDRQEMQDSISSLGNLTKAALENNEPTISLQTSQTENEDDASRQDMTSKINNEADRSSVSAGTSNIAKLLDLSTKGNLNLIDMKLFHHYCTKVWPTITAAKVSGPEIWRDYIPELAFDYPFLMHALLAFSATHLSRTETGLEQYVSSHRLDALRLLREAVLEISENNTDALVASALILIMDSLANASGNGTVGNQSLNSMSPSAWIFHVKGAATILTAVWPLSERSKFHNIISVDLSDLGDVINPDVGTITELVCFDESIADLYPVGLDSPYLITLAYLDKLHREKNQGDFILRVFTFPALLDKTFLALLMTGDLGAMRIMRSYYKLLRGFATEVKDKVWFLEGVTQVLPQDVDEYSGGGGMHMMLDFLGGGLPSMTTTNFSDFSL
Test: PBM E-score (8-mer binding enrichment) (E-score (-0.5 to 0.5)); higher = stronger / more preferred TF binding; most listed sequences are background and not binding sites
Conditions: protein concentration: 200 nM; construct: GST-full length
Method in brief: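 GST-tagged yeast TFs (full-length or DNA-binding domain) were made by PURExpress in vitro transcription/translation and applied at about 100-200 nM to universal all-10-mer Agilent arrays. The arrays were made double-stranded by primer extension, on fresh or once-stripped slides. Bound protein was detected with fluorescent anti-GST, and scans were normalised with masliner. Each ungapped eight-base word, pooled with its reverse complement, received an E-score (modified Wilcoxon-Mann-Whitney statistic) from the Universal PBM Analysis Suite.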

Row | Sequence | PBM E-score
1 | GAGTGTTA | -0.0834
2 | ACTTTGAT | -0.225
3 | AAAGTACA | 0.13
4 | ACCGGATG | 0.0233
5 | AGGATGAT | -0.0716
6 | CGACGCGA | 0.0689
7 | GGCATCCC | -0.283
8 | GGCTCAGA | -0.0243
9 | CCGGGTCG | 0.124
10 | CGGCAAGA | -0.0769
11 | ACGGTGCT | 0.158
12 | GGCACTAA | -0.185
13 | CTTGTAGC | -0.194
14 | ACGCGGAC | -0.0315
15 | GCTGGTAC | 0.0549
16 | CCACGCCA | -0.196
17 | GTCGTAGA | 0.386
18 | AGCCCCCT | -0.0968
19 | CATCCAGA | -0.137
20 | CCACACAA | -0.164
21 | CGTGGTGA | -0.184
22 | ACTAGCAA | -0.0127
23 | CGGCGCGA | 0.0234
24 | AGCCCACT | -0.0606
25 | ACCCGATA | 0.186

Row | Sequence | PBM E-score
26 | CACGTTTC | -0.0911
27 | ATCACTGG | -0.0895
28 | ATGCTCAA | -0.193
29 | ATCTTGCG | -0.0954
30 | ACGCAGTA | 0.144
31 | GGATGTCA | -0.0217
32 | CTCTGCTA | -0.287
33 | CCGTGAGA | -0.314
34 | CATCATAG | -0.144
35 | CCTACCAC | -0.181
36 | ATAGCGGG | -0.104
37 | GGACACAA | -0.071
38 | CAGTCGCG | 0.0786
39 | ACTTAGTC | -0.111
40 | TCTAGCAA | -0.0683
41 | CGTCCTTC | -0.105
42 | AGAAAGGC | -0.139
43 | CGTATAGA | 0.48
44 | GCATCTAA | 0.154
45 | CACGGAAC | 0.0588
46 | ATTCCGAA | 0.0108
47 | CCCTATCG | -0.0955
48 | ATGGGAAC | 0.128
49 | GGAGAGAC | -0.254
50 | AGCTTGTA | 0.0473

Row | Sequence | PBM E-score
51 | ACTTAGAC | -0.00246
52 | GCCCTACA | -0.0608
53 | ATAAAGAT | 0.0673
54 | ACTTAAAT | -0.136
55 | ACTGTAAG | 0.21
56 | TATAGTGA | -0.0418
57 | TCGTAGCA | 0.39
58 | GTGTTAAC | -0.0236
59 | CGCCCACC | -0.216
60 | ACGCTGTA | 0.16
61 | ACGTAGGA | 0.0483
62 | CTTTAGAA | -0.0609
63 | CTGCCGCA | -0.171
64 | CTATAATC | 0.121
65 | GCCCAGGA | -0.294
66 | TAACTATA | 0.0748
67 | GCGGCAGC | -0.259
68 | GACTAGCA | -0.169
69 | AATCGAAT | 0.0785
70 | GCATTTAA | 0.125
71 | CCATCGCG | 0.00905
72 | GAAGTCCA | -0.273
73 | AGAAGGCA | -0.179
74 | CCGAGCAC | 0.0986
75 | AGCGCCGC | -0.12

Row | Sequence | PBM E-score
76 | CACCCGAA | 0.0163
77 | AATGCCGA | -0.0575
78 | GTCGTCGA | -0.0294
79 | GGCGAAAA | 0.098
80 | AGCAGAGA | -0.28
81 | ACGAAATG | 0.283
82 | CGGCTTAG | -0.287
83 | ACTCCCTA | -0.00677
84 | CCTAACAC | 0.0225
85 | AGTACGCC | -0.0728
86 | ACGGTCTC | 0.204
87 | ATTAGTCG | 0.278
88 | CACATCAG | -0.174
89 | GGGTAGTA | -0.091
90 | CCGGCTAA | -0.199
91 | CTGGGACA | -0.0359
92 | AACGCACT | 0.141
93 | TAGCGCAA | 0.042
94 | GCGTATTA | 0.0994
95 | GTAGCGCA | 0.0969
96 | AAACTTCT | 0.116
97 | GGCAAGCC | -0.209
98 | AATTTGTG | 0.02
99 | AAGGACAA | -0.0102
100 | AGATTTAT | 0.0852

Row | Sequence | PBM E-score
101 | AACATAAA | 0.0726
102 | GGGGACGA | -0.193
103 | AATTACAA | -0.198
104 | TTAGGCAA | -0.18
105 | CCATACGG | 0.396
106 | ACAACACG | 0.0954
107 | CCGAGTGA | 0.102
108 | GATACTCA | -0.093
109 | GACTCGCC | -0.046
110 | ACTAGAGG | -0.234
111 | GGGAGCGA | 0.195
112 | GATCTAAA | 0.0875
113 | ATCACTCA | -0.0539
114 | CGCACACC | 0.149
115 | ACGGCTTA | 0.0625
116 | AGACACGA | 0.11
117 | ATCTACCG | 0.0255
118 | TGACTGAA | -0.167
119 | AACTAGAG | -0.226
120 | GGGATGCA | -0.0955
121 | ACAATCTA | 0.0317
122 | CATCTGGG | -0.133
123 | GCTTAGCC | -0.0687
124 | CAACTTCG | 0.0522
125 | CTTCCTGA | -0.0594

Row | Sequence | PBM E-score
126 | AGCGTCCA | -0.181
127 | AATATTTG | 0.15
128 | CGCGGTGC | -0.14
129 | AGGGGAGG | -0.135
130 | ATCCACAT | 0.00066
131 | AAACAGTG | 0.0714
132 | CAAGCTAA | -0.081
133 | ACGCCAGA | 0.0811
134 | AGACTCCG | -0.196
135 | CGATTGAC | 0.03
136 | ATACGGGA | 0.382
137 | ACCCGACA | 0.0838
138 | CCTATATA | 0.18
139 | CGTAAAGA | 0.412
140 | CAGACCCA | -0.0945
141 | CTGCTAGA | -0.159
142 | GATTGCGA | 0.0592
143 | CATATCAG | -0.165
144 | CGGTTGAC | 0.0663
145 | AGATTCTG | -0.134
146 | CATACATC | -0.0547
147 | GGGTACCC | -0.112
148 | CAAAGCCA | -0.0387
149 | AATACTGG | -0.0741
150 | CCCAGCAC | -0.227

Row | Sequence | PBM E-score
151 | GCGTCCTA | -0.181
152 | CCCGGCCG | -0.157
153 | AACAGATA | -0.0868
154 | ACCTATAA | 0.141
155 | CTGCTGTC | -0.0411
156 | ATCGAGTC | -0.0489
157 | ACCAGGCC | -0.0273
158 | TAAATCGA | 0.0845
159 | CAGTGGGG | -0.272
160 | GAGGAAAC | -0.0276
161 | CCCGCTAA | -0.0534
162 | GATGCCTA | -0.167
163 | GCGGTGCC | -0.202
164 | GACTTACA | 0.164
165 | CACTAGTA | -0.0329
166 | AACCGTCC | -0.191
167 | ATTAAGAG | -0.0833
168 | ACCAGCCC | -0.186
169 | GATGCCAC | -0.21
170 | AGTTTCGC | 0.0981
171 | ACCTTAAC | 0.15
172 | GGTGTATA | -0.0671
